This is an account of results in the RNAGym collection of RNA variant scans (doi:10.1093/nar/gkz1192).

The source gives no read counts; variants with many changes may rest on few reads.

Sequences and labels used below:
B1: CPEB3 Ribozyme (parent)
chain: UAACAGGGGGCCACAGCAGAAGCGUUCACGUCGCAGCCCCUGUCAGAUUCUGGUGAAUCUGCGAAUUCUGCUGUAUAUCUC

Variants of B1 are the subject of this series. As to the kind of experiment: self-cleavage, relative activity (ratio to wild type); higher = more cleavage; in vitro, sequencing. In outline:
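Relative activity compares each variant's cleaved/total read fraction with that of the unmutated ribozyme. To get these fractions, barcoded CPEB3 ribozyme libraries from rounds of error-prone PCR were transcribed with T7 RNA polymerase for 5 hours at 37°C and then given 15 min of DNase I treatment before EDTA was added. The RNAs were reverse transcribed with template switching and sequenced on Illumina, and DNA sequencing linked barcodes to variants. A minimum of 5 reads applied, and three batches were averaged.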
As for UAACAGGGGGCCACAGCAGAGGCGAUCACGUCGCAGCCCCUGUCAGAUUCUGGUGAGUCUGCGAAUUCUGCCGUAUACCUC, the self-cleavage was found to be 0.06.
As for UAACAGGGGGCCACAGCAGAGGCGUUCACGUCGCAGCCCCUGUCAGAUUCUGGUAAAUCUGCGUAUUCUGGUGUAUAUCUC, the figure is 0.4; as for UAACAGGGGGCCACAGCAGAGGCGUCCACGUCGCAGCCCCUGUCAGAUUAUGGUGCAUCUGCGAAUUCUGCUGUAUAUCUC, 0.32; as for UAACAGGGGGCCACAGCAGAGGCGCUCACGUCGCAGCCCCUGUCAGAUUCUGGUGAAUCUGCGAAUUCAGCUGUAUAUCUC, 0.33.
In the case of UAACAGGGGGCCACAGCAGAGGCGUCCACGUCGCAGCCCCUGUCAGAUUCUGCGGAAUCUGCGAAUUCUGCUGUAUAUCUC, the self-cleavage was determined as 0.18.
As for UAACAGGGGGCCACAGCAGAGGCGUACACGUCGCAGCCCCUGUCAGAUUCUGGCGAAUCCGCGAAUUCUGCUGUAUAUCUC, the figure is 0.18; as for UAACAGGGGGCCACAGCAGAGGCGUCCACGUCGCAGCCUCUGUCAGAUUCUGGUGAAUCUGCGGAUUCUGCUGUAUAUCUC, 0.11; as for UAACAGGGGGCCACAGCAGAGGCGCUCACGUCGCAGCCCCUGUCAGACUCUGGUGAGUCCGCGAAUUCUGCUGUACAUCUC, 0.35.
As for UAACAGGGGGCCACAGCAGAGGCGUUCACGUCGCAACCCCUGUCAGAUUCUGGUGAAUCUGCGAAUUCUGCUGCACAUCUC, the figure is 0.31; as for UAACAGGGGGCCACAGCAGAGGCGCUCACGUCGCAGCCCCUGUCAGAUUCUGGUGAAUCUGCGAAUCCUGCUGUAUAUCUC, 0.24.
The figure for UAACAGGGGGCCACAGCAGAGGCGUCCACGUCGCAGCCCCUGUCAGAUUCUGGUGAAUCUGGGAAUUCUGAUGUAUAUCUC is 0.08; for UAACAGGGGGCCACAGCAGAGGCGUCCACGUCGCAGCCCCUGUCAGAUUCUGGUGGAUCUGCGAAUUCUGCUGGAUAUCUC it is 0.57; for UAACAGGGGGCCACAGCAGAGGCGUCCGCGUCGCAGCCCCUGUCAGAUUCUGGUGAAUCUGCGAAUUCUGCUGUAUAUCUC it is 0.36.
On to UAACAGGGGGCCACAGCAGAGGCGUACACGUCGCAGCCCCCGUCAGAUCCUGGUGAAUCUGCGAAUUCUGCUGUAUUUCUC, for which the self-cleavage worked out at 0.15.
The figure for UAACAGGGGGCCACAGCAGAGGCGUUCACGUCGCAGCCCCUGUCAGAUUCUGGUGAAUCUGCCGAUUCUGCUGUAUAACUC is 0.13.
The figure for UAACAGGGGGCCACAGCAGAGGCGCUCGCGUCGCAGCCCCUGUCAGAUUCUGGUGAAUCUGCGAAUUCUGCUGUAUAUCUC is 0.58; for UAACAGGGGGCCACAGCAGAGGCGUCCACGUCCCAGCCCCUGUCAGAUUCUGGUGAAUCUGCGAAUUCUGCUGUAUAUCUC it is 0.17; for UAACAGGGGGCCACAGCAGAGGCGCUCACGUCGCGGCCCCUGUCAGAUUCUGGUGAAUCUGCGAAUUCUGCUGUACAACUC it is 0.07.
The figure for UAACAGGGGGCCACAGCAGAGGCGUUCACGUCGCAGCCCCUGUCAGAUUCUAGUGAAUCUGCGAGUUCUGCUGUAUAUCUC is 0.26; for UAACAGGGGGCCACAGCAGAGGCGCUCACGUCGCGGCCCCUGUCAGAUUCUGGUGAAUCUGCGAAUUCAGCUGUUUAUCUC it is 0.08; for UAACAGGGGGCCACAGCAGAGGCGGUCACGACGCAGCCCCUGUCAGAUUCUGGUGAAUCUGCGAAUUUUGCUGUAUAUCUC it is 0.08.
For UAACAGGGGGCCACAGCAGAGGCGUCCACGUCGCAGCCCCUGUCAGAUUCUGGUGAAUCUGCGAACUCUGCUGUAUAUCUC, the self-cleavage was determined as 0.4.
As for UAACAGGGGGCCACAGCAGAGGCGCUCACUUCGCAGCCCCUGUCAGAUUCUGGUGAAUCUGCGUAUUCUGCUGUAUAUCUC, the figure is 0.06; as for UAACAGGGGGCCACAGCAGAGGCGUACACGUCGCAGCCCCCGUCAGAUUCUGGUGAUUCUGCGAAUCCUGCUGUAUAUCUC, 0.
The figure for UAACAGGGGGCCACAGCAGAGGCGUGCACGUCGCAGCCCCUGCCAGAUUCUGAUGAAUCCGCGAACUCUGCUGUAUAUCUC is 0.21; for UAACAGGGGGCCACAGCAGAGGCGCUCACGUCGCAGCCCCUGUCAGAUUCUGGAGAAUCUGCGAAUUCUGCUGUAUAUCUC it is 0.16; for UAACAGGGGGCCACAGCAGAGGCGUCCACGUCGCAGCCCCUGUCAGGUUCUGGUGAAUCUGCGAAUUCUGCUGUAUACCUC it is 0.3.
Turning to UAACAGGGGGCCACAGCAGAGGCGCCCACGUCGCAGCCCCUGUCAGAUUCUGGUGAAUCUGCGAGUCCUGCUGUAUAUCUC, the self-cleavage was determined as 0.16.
Take UAACAGGGGGCCACAGCAGAGGCGAUCACGUCGCAGCCCCUGUCAGAUUCUGGUGAAUCUGCGAAGUCUGCUGUAUAUCUC: the self-cleavage was 0.12.
The figure for UAACAGGGGGCCACAGCAGAGGCGUUCACGCCGCAGCCCCCGUCAGAUUCUGGUGAAUCUGCGAGUUCUGCUGUAUAUCUC is 0.14; for UAACAGGGGGCCACAGCAGAGGCGUCCACGUCGGAGCCCCUGUCAGAUUCUGGUGAAUCUGCGAAUUCCGCUGUAUAUCUC it is 0.33.
The figure for UAACAGGGGGCCACAGCAGAGGCGCUCACGUCGCAGCCCCUGUCAGACUCUGGUGAAUCUGCGAAUUCUGCUGUAUACCCC is 0.09; for UAACAGGGGGCCACAGCAGAGGCGUUCACGUCGCACCCCCUGUCAGAUUCUGCUGAAUCUGCGAAUUCUGCUGUAUAUCUC it is 0.19.
Turning to UAACAGGGGGCCACAGCAGAGGCGCUCAAGUCGCAGCACCUGUCAGAUUCUGGGGAAUCUGCGGAUUCUGCUGUAUAUCAC, the self-cleavage was 0.05.
